Measurements taken from PubChem BioAssay AID995 (National Center for Advancing Translational Sciences (NCATS), 2007).
“And” between values parts separate entries of the source, which are not always exact repeats. Equal entries are not always repeated. Out of some 72,000 compounds screened, about 710 (0.99%) were called active. This list was built around the results that the source calls inconclusive (neither active nor inactive); the mix of calls is not that of the screen. Calls follow the shape of the dose curve; as a rule, active = well fitted inhibition curve with a large enough effect; inconclusive = small, poorly fitted or top-dose-only effect; inactive = no such curve, though single readings can be large or run the other way. Potencies beside an inconclusive call are fits to weak or partial responses and may not hold up.

assay: qHTS Assay for Inhibitors of the ERK Signaling Pathway using a Homogeneous Screening Assay; settings: HEK293-V1b, vasopressin-stimulated pERK AlphaScreen; activity, negative = inhibition: at 57.5 µM (top of the series) unless noted; also: nearly all actives have a fitted effect of over 55% in size
Summary of the method: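 qHTS, compounds titrated on V1b-expressing HEK293 cells. Preincubation 30 min at 37C, vasopressin 25 nM for 5 min, lysis 10 min, bead incubation 5 hr at room temperature.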
% is scaled to controls: 0 for no effect and ±100 for the full control effect; potency is read from the fitted curve at half-maximal effect; tags tell the direction and shape of the fitted curve.

| Compound | Potency | activity, negative = inhibition |
| --- | --- | --- |
| CCOc1ccc(S(=O)(=O)Nc2cccc(C(=O)N3CCN(c4ccc(OC)cc4)CC3)c2)cc1 | inconclusive: 6.31 µM [inhibitor, partial curve] | – |
| CSCC[C@@H](C(=O)O)N(C)C | – | inactive: -1.74% [at 11.5 µM] |
| COCCn1c(SCC(=O)Nc2cccc(C)c2)nnc1C(C)C | – | inconclusive: -35.5% [inhibitor] |
| CCOC(=O)Nc1cccc(Nc2ccccc2)c1 | inconclusive: 20 µM [inhibitor, single point] | – |
| COc1ccc(C)cc1-n1c(N)c(C#N)c(C#N)c1-c1ccc(OC)c(OC)c1OC | inconclusive: 20 µM [inhibitor, single point] | – |
| CCOC(=O)c1[nH]c2c(c1C)C(=O)CC(c1ccc(N(C)C)cc1)C2 (centres undefined) | inconclusive: 25.1 µM [inhibitor, single point] | – |
| CCCCCS(=O)(=O)CCCCCCCCCCn1c(-c2ccc(O)cc2)c(C)c2cc(O)ccc21 | inconclusive: 12.6 µM [inhibitor, partial curve] | – |
| CSc1nc(N)c(C#N)c(-c2ccc(Cl)cc2)c1C#N | inconclusive: 39.8 µM [inhibitor, single point] | – |
| CN(C)S(=O)(=O)c1ccc2oc(SCC(=O)NCC(F)(F)F)nc2c1 | inconclusive: 0.0398 µM [inhibitor, full curve, poor fit] | – |
| Cc1cc2n(n1)C(c1ccc3c(c1)OCO3)Nc1ccccc1-2 (centres undefined) | – | inactive: -13.8% |
| CC(=O)Nc1c(C(=O)O)oc2ccc(Cl)cc12 | inconclusive: 31.6 µM [inhibitor, single point] | – |
| CCCc1cc2c(n1Cc1cc(F)cc(F)c1)C(C)C1CN(C(=O)c3ccccc3)C(C)(C(=O)OC)C21 (centres undefined) | – | inactive: 1.48% |
| CCCCCOc1ccc(/C=c2\sc3ncnn3c2=O)cc1 | inconclusive: 39.8 µM [inhibitor, single point] | – |
| CCN(C(C)=O)c1nnc(CSc2nc3ccccc3s2)s1 | inconclusive: 7.94 µM [inhibitor, full curve] | – |
| Cc1cc(C)n(-c2ccc(C(=O)C(C#N)c3nc4ccccc4n3C)cc2)n1 (centres undefined) | inconclusive: 39.8 µM [inhibitor, single point] | – |
| CC(=O)c1c(C)[nH]c(C(=O)OCc2nnc(-c3ccccc3)o2)c1C | active: 25.1 µM | – |
| CCc1cc(=O)oc2cc(C)cc(OC(=O)c3ccco3)c12 | inconclusive: 20 µM [inhibitor, partial curve] | – |
| CCN1C(=O)c2cccc3c(S(=O)(=O)Nc4ccccc4OC)ccc1c23 | – | inactive: -2.01% |
| Cn1c(=O)n(Cc2ccc(Cl)cc2)c(=O)c2c1nc1n2CCN1Cc1ccco1 | inconclusive: 31.6 µM [inhibitor, single point] | – |
| COc1ccc(-c2nc(CSCC(=O)N3CCc4ccccc4C3)c(C)o2)cc1OC | inconclusive: 25.1 µM [inhibitor, partial curve] | – |
| CS(=O)(=O)Nc1cccc(-c2ccc3ncnc(N4CCNCC4)c3c2)c1 | inconclusive: 12.6 µM [inhibitor, partial curve] | – |
| CCOc1ccccc1NC(=O)C1CCN(S(=O)(=O)c2ccc(OC)c(OC)c2)CC1 | inconclusive: 15.8 µM [inhibitor, partial curve] | – |

| Compound | Potency | activity, negative = inhibition |
| --- | --- | --- |
| O=C(Cn1cnc2ccccc21)NCCCN1CCOCC1 | inconclusive: 10 µM [inhibitor, partial curve] | – |
| CCSCCOC(=O)C1=C(C)N(C)C(=O)NC1c1cc(OC)ccc1OC (centres undefined) | inconclusive: 31.6 µM [inhibitor, single point] | – |
| Cc1nc(N=Nc2cc(S(=O)(=O)O)c3cc([N+](=O)[O-])cc(S(=O)(=O)O)c3c2)c(COP(=O)(O)O)c(C=O)c1O | inconclusive: 12.6 µM [inhibitor, partial curve] and inconclusive: 39.8 µM [inhibitor, partial curve] | – |
| OCCn1c(SC2CCCCC2)nc2ccccc21 | inconclusive: 20 µM [inhibitor, single point] | – |
| CC(C)c1ccc(NC(=O)C2CCN(S(C)(=O)=O)CC2)cc1 | – | inactive: -33.9% |
| COc1ccc(-c2ccc(-c3noc(-c4ccccc4OC)n3)c(OC)n2)cc1 | – | inactive: -3.22% |
| FC(F)(F)c1ccccc1-c1cncnc1NCc1ccccc1 | inconclusive: 25.1 µM [inhibitor, partial curve] | – |
| Cc1ccc(-n2nnc3c(=O)n(Cc4cc(C)ccc4C)cnc32)cc1 | – | inactive: 5.29% |
| O=C(C1=C(O)C(=O)N(CCN2CCOCC2)C1c1ccccc1)c1cccs1 (centres undefined) | inconclusive: 0.0631 µM [inhibitor, full curve, poor fit] | – |
| CC(c1nnc(SCC(=O)c2c(N)n(C)c(=O)n(C)c2=O)n1-c1ccc(Cl)cc1)N(C)C (centres undefined) | active: 39.8 µM | – |
| Nn1c(Nc2ccccc2)nc2sc3c(c2c1=O)CCC3 | inconclusive: 39.8 µM [inhibitor, single point] | – |
| Cn1cccc1Cc1nnc(SCC(=O)NCc2ccccc2Cl)n1-c1ccc(F)cc1 | inconclusive: 25.1 µM [inhibitor, single point] | – |
| CC1CCc2c(sc(N)c2C(N)=O)C1 (centres undefined) | – | inactive: -19.1% |
| COc1ccc2[nH]cc(CCNc3ncnc4ccc(-c5c(C)noc5C)cc34)c2c1 | – | inactive: -16.7% |
| CCOc1ncccc1C(=O)Nc1ccc(Cl)cc1 | – | inactive: 3.85% |
| COc1ccc(C2=CC(c3c(C)nn(-c4ccccc4)c3Cl)n3nnnc3N2)cc1OC (centres undefined) | inconclusive: 2.51 µM [inhibitor, partial curve] | – |
| Cc1ccc(NCCNc2ccc(C)cc2)cc1 | – | inactive: -25.1% |
| CCOC(=O)c1cc2c(=O)n3ccccc3nc2n(Cc2ccccc2)c1=N | – | inactive: 5.33% |
| COc1ccc(N2CCN(CC(=O)Nc3nc4c(s3)CC(C)CC4)CC2)cc1 (centres undefined) | inconclusive: 25.1 µM [inhibitor, partial curve] | – |
| Cc1cc(/C=N/n2cnnc2)c(C)n1-c1ccc(OCc2ccc(F)cc2)cc1 | inconclusive: 20 µM [inhibitor, partial curve] | – |
| CCOC(=O)N1CCN(C(=O)C2COc3ccccc3O2)CC1 (centres undefined) | – | inactive: -10.9% |
| COc1cc2c(=O)n(Cc3ccco3)c(=O)n(CC(=O)c3ccc(Br)cc3)c2cc1OC | inconclusive: 0.398 µM [inhibitor, partial curve] | – |
